# Reference: publication PMC4336329 (PLoS ONE, 2015)
# Screen size: about 310,000 compounds; about 2,200 (0.71%) showed an effect of 50% or more. The effect is printed as a negative number. Some of the results follow.
# Molecular target: human ether-à-go-go-related gene (hERG) potassium channel (human, UniProt Q12809)
# Assay: primary screen, population patch clamp on CHO cells stably expressing hERG
# Sequence of human ether-à-go-go-related gene (hERG) potassium channel (Q12809 whole entry, looked up): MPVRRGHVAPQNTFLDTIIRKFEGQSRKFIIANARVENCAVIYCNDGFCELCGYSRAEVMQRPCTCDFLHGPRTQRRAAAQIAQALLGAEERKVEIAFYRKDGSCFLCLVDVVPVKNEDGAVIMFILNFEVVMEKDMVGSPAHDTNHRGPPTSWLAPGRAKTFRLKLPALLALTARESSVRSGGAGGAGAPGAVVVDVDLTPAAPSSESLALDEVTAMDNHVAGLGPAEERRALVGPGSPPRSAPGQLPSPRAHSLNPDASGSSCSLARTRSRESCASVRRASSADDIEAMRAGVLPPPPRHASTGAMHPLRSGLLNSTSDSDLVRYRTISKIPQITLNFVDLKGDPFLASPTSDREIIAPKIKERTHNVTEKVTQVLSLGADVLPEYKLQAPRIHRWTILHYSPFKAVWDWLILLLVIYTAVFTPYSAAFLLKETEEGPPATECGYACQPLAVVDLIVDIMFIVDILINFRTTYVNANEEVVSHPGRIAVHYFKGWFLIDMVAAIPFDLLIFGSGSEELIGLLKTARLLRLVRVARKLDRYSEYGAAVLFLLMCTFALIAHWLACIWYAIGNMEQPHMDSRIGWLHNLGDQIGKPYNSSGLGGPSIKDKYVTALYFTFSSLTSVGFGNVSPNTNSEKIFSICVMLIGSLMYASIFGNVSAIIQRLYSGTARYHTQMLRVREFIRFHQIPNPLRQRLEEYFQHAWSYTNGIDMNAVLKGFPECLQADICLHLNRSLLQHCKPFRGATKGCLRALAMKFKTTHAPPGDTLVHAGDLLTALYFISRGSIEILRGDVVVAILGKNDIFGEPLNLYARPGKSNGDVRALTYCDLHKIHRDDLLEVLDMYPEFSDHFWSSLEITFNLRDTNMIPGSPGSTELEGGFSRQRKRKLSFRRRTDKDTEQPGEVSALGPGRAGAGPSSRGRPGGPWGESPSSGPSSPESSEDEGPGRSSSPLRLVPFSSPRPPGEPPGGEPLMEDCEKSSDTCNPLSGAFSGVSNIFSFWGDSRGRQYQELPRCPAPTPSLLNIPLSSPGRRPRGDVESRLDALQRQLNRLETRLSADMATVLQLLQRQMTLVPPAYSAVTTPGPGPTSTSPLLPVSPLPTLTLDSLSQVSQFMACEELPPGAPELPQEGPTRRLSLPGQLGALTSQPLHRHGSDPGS
row,SMILES,"hERG current change (%, negative = inhibition) at 1uM [%]"
1,CN(C)c1ccc(/C=N/Nc2ccc(-n3ccnc3)nn2)cc1,-0.88
2,c1ccc(C2COC(c3cccs3)=N2)cc1 (centres unmarked),4.09
3,C=C(Br)Cn1c(CC)nc2ccccc21,13.1
4,COC(=O)NC(=S)Nc1ccc(Oc2ccc(Cl)cc2Cl)c(Cl)c1,13.2
5,Cl.N[C@@H](Cc1c[nH]c2ccccc12)c1nnc(SCc2ccc(Cl)cc2)o1,-3.36
6,O=C(Nc1ccccc1C(=O)Nc1ccccc1C(=O)O)c1ccccc1,11.8
7,CCCSc1nc2[nH]ncc2c(=O)[nH]1,10.4
8,Cc1ccc(C(=O)Nc2ccc(C(=O)O)cc2)cc1S(=O)(=O)Nc1cccc([N+](=O)[O-])c1,6.09
9,Cc1ccc(C(=O)NN(CCC(=O)NC(C)(C)C)C2=NS(=O)(=O)c3ccccc32)cc1,4.97
10,Cc1ccc(NC(=S)Nc2cc(C)on2)cc1,7.75
11,NC(=O)c1c(NC(=O)Cn2nc(C(=O)O)c3ccccc3c2=O)sc2c1CCC2,11.8
12,CCOC(=O)c1cnc(-c2ccccc2)nc1Oc1cccc(Cl)c1,7.75
13,Cc1ccccc1C(=O)Nc1ccccc1C(=O)NCC(C)C,13.7
14,Cc1cc(C)cc(NC(=O)COC(=O)CCCNC(=O)c2ccc(Cl)cc2)c1,2.42
15,O=C(/C=C/c1c(Cl)nc2ccccn12)Nc1ccc(F)cc1,18
16,Cc1nn(-c2ccccc2)c(N)c1C(O)(CSc1nccn1C)C(F)(F)F (centres unmarked),15.5
17,CCCCc1ccc(NC(=O)N2CCNC(=O)C2CC(=O)Nc2ccsc2C(=O)OC)cc1 (centres unmarked),11.8
18,O=S(=O)(Cc1ccccc1Cl)CC(O)COc1ccccc1Cl (centres unmarked),-2.92
19,COc1cc2c(cc1OC)n(CC(=O)NC1CCCCCC1)n1c(C)cc(=O)nc21,-0.313

row,SMILES,"hERG current change (%, negative = inhibition) at 1uM [%]"
1,COc1cccc(/C=N/NC(=O)CSc2cccc3cccnc23)c1,8.91
2,CC(=O)c1c(N2CCN(C)CC2)nc(=S)n(Cc2ccccc2)c1C,1.93
3,Cc1ccc(-c2[nH]c3ccccc3c2SCCN)cc1,4.76
4,CCCOc1ccc(-c2nc(C#N)c(N3CCc4ccccc4C3)o2)cc1,-7.81
5,Cc1c(C(=O)N2CCOCC2)oc2ccc(S(=O)(=O)N3CCCCCC3)cc12,7.94
6,COC(=O)c1c(NC(=S)NNS(=O)(=O)c2ccc(OC)cc2OC)sc2c1CCCCCC2,-22
7,COCCN1C(=O)c2ccccc2C(C(=O)NCc2ccco2)C1c1c[nH]c2ccccc12 (centres unmarked),1.92
8,Cc1onc(-c2ccccc2)c1C(=O)Nc1ccccc1NC(=O)c1c(-c2ccccc2)noc1C,1.02
9,CCN1CCCC1CNC(=O)Cn1cc2c(n1)CCC(C)C2 (centres unmarked),8.87
10,CC(=NCc1ccco1)c1c(O)n(-c2ccc(C)cc2)c(=O)[nH]c1=O,15.8
11,CCN(CC)CCn1c(NCc2cccc(OC)c2)nc2ccccc21.Cl,-23.3
12,CC(C(=O)NC1CCCC1)N(C(=O)c1ccc(-c2ccccc2)[nH]1)c1ccccc1F (centres unmarked),3.86
13,CCC(=O)Nc1ccc(C(=O)CSc2nnc(-c3ccccc3F)n2CCc2ccccc2)cc1,11.6
14,Cc1ccc2c(c1)C(c1ccccc1)N(C(=O)CC(C)C)CC(=O)N2 (centres unmarked),-3.03
15,CCC(=O)c1ccc(OCc2ccc(C(=O)OC)o2)c(OC)c1,-0.557
16,CC1(C)Nc2ccccc2C(=O)N1NS(=O)(=O)c1ccccc1,8.64
17,CC(C)CCN1CCN(CCCc2ccccc2)CC1CCO (centres unmarked),-1.8
18,C=CCSc1nnc2c(n1)[nH]c1c(C)cccc12,0.607
19,CN1C(=O)Cc2cc(S(=O)(=O)NCCc3ccccc3)ccc21,7.96

row,SMILES,"hERG current change (%, negative = inhibition) at 1uM [%]"
1,O=C(C1CC1)N1CCc2cc(Br)cc(S(=O)(=O)N3CCCCCC3)c21,6.34
2,CNC(=O)N1CCC(C(=O)c2c(C)c(C)c(C)c(C)c2C)CC1,13
3,O=C(C1CC1)N1N=C(c2ccncc2)CC1(O)C(F)(F)F (centres unmarked),22
4,Cc1nc(C)c(C(=O)C2=C(O)C(=O)N(CCN3CCOCC3)C2c2cccnc2)s1 (centres unmarked),8.65
5,CC(=O)N1N=C(c2ccccc2)CC1c1cn(C)c2ccccc12 (centres unmarked),1.73
6,CCCCC(=O)N=c1sc2cc([N+](=O)[O-])ccc2n1C,8.17
7,CC1CCN(CC(O)COC2CCC(C(C)(C)C)CC2)CC1.Cl (centres unmarked),-1.9
8,CCCc1nc2nc(C)c(NS(=O)(=O)c3ccc(F)cc3)c(=O)n2[nH]1,15.8
9,Cn1c(O)c(C=Nc2ccccc2Sc2ccccc2)c(=O)n(C)c1=O,14
10,CCOCCOC(=O)c1cccc2c1-c1ccccc1C2=O,11.6
11,CSCCC(NC(=O)/C(=C/c1ccc2c(c1)OCO2)NC(=O)c1cccc([N+](=O)[O-])c1)C(=O)O (centres unmarked),1.58
12,CC(C)(C)C(=O)NCCCNc1ccc([N+](=O)[O-])cc1,-9.67
13,CCOc1ccccc1N(C)C(=O)c1cn(C)c(=O)c2ccccc12,14.8
14,O=C(C1=C[C@@H](C2CC2)C[C@@H](OCCCCO)O1)N1CCN(Cc2ccc3c(c2)OCO3)CC1,9.7
15,COc1cc(S(=O)(=O)Nc2ccc(C)cc2)ccc1N=Cc1c(C)c(C#N)c(=O)n(C)c1O,9.2
16,COC(=O)CSc1nc2c(c(-c3ccc(O)cc3)c1C#N)CCCC2,9.09
17,Cc1ccccc1NC(=O)CSc1nnc(NC(=O)c2ccco2)s1,-1.6
18,CC(=O)Nc1ccc(N(C(=O)Cn2nnc3ccccc32)C(C(=O)NC2CCCC2)c2ccc(O)c(O)c2)cc1 (centres unmarked),15
